Measured values taken from the RNAGym collection of RNA variant scans (doi:10.1093/nar/gkz1192).
Read counts are not given, so values of variants with three or more changes are uncertain.

B1: CPEB3 Ribozyme (parent)
chain: UAACAGGGGGCCACAGCAGAAGCGUUCACGUCGCAGCCCCUGUCAGAUUCUGGUGAAUCUGCGAAUUCUGCUGUAUAUCUC

Variants of: B1
Test: self-cleavage, relative activity (ratio to wild type); higher = more cleavage; in vitro, sequencing
Outline: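 For each CPEB3 ribozyme variant, relative activity is its cleaved/total read fraction divided by the unmutated ribozyme's. Barcoded error-prone PCR libraries were transcribed by T7 RNA polymerase (5 hours, 37°C) and held in DNase I for 15 min before an EDTA stop, with cleavage occurring throughout. Template-switching reverse transcription and Illumina sequencing were used to read the RNAs. A 5-read minimum applied, and results are the mean of three batches.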

Row | Variant | self-cleavage
1 | UAACAGGGGGCGACAGCGGAAGCGUUCACGUCGCAGCCCCUGCCAGAUUCUGGUGAAUCUGCGAAUUCUGCUGUAUAUCUC [C12G A18G U43C] | 0.31
2 | UAACAGGGGGCGACAGCGGAAGCGUUCACGUCGCAGCCCCUGUCAGAUUCCGGUGAAUCUGCGAAUUCUGGUGUAUAUCUC [C12G A18G U51C C71G] | 0.09
3 | UAACAGGGGGCGACAGCUGAAGCGUUCACGUCGCAGCCCCUGUCAGAUUCUGGUGAAUCUGCGAAUUCUGCUGUAUAUCCC [C12G A18U U80C] | 0.41
4 | UAACAGGGGGCGACAGCAGAGGCGUUCACGUCGCAGCCCCUGUCAGAUUCUGGUGGAUCUGCGAAUUCUGCUGUAUAUCUC [C12G A21G A56G] | 0.17
5 | UAACAGGGGGCGACAGCAGAGGCGCUCACGACGCAGCCCCUGUCAGAUUCUGGUGAAUCUGCGAAUUCUGCUGUAUAUCUC [C12G A21G U25C U31A] | 0.25
6 | UAACAGGGGGCGACAGCAGAAGCGUUCACGUCGCAGCCCCUGUCAGAUUCUGGUGAAUCUGCGGAUUCCGCUGUAUAUCUC [C12G A64G U69C] | 0.08
7 | UAACAGGGGGCGACAGCAGAAGGGUUCACGUCGCAGCCCCUGUCAGAUUCUGGUGAAUCUGCGUAUUCUGCUGUACAUCCC [C12G C23G A64U U76C U80C] | 0.04
8 | UAACAGGGGGCGACAGCAGAAGUGGUCACGUCGCAGCCCCUGUCAGAUUCUGGUGAAUCUGCGAAUUCUGCUGUAUAUCUC [C12G C23U U25G] | 0.05
9 | UAACAGGGGGCGACAGCAGAAGUGUUCACGUCGCAGCCCCUGUCAGACUCUGGUGAAUCUGCGAAUUUUGCUGUAUAUCUC [C12G C23U U48C C68U] | 0.03
10 | UAACAGGGGGCGACAGCAGAAGCGUUCACGUCGCAGCCACUGUCUGAUUCUGGUGAAUCUGCGAAUUCUGCCGUAUAUCUC [C12G C39A A45U U72C] | 0.05
11 | UAACAGGGGGCGACAGCAGAAGCGUUCACGUCACGACCCCUGUCGGGUUCUGGUGAAUCUGCGAAUUCUGCUGUAUAUCUC [C12G G33A A35G G36A A45G A47G] | 0.07
12 | UAACAGGGGGCGACAGCAGAAGCGUUCACGUCGCAGCCCCUAUGAGAUUCUGGUGAAUCAGCGAAUUCUGCUGUAUAUCUC [C12G G42A C44G U60A] | 0.19
13 | UAACAGGGGGCGACAGCAGAAGCGUUCACGGCGCAGCCCCUGUCAGAUCCUGGUGAAUCUGCGAAUUCUGCUGUAUAUCUC [C12G U31G U49C] | 0.14
14 | UAACAGGGGGCGACAGCAGAAGCGUUCACGUCGCAGCCCCCGUCAGAUUCUGGUGAAUCUGCGAAUUCUGCUAUAUAUCUC [C12G U41C G73A] | 0.96
15 | UAACAGGGGGCGACAGCAGAAGCGUUCACGUCGCAGCCCCUGCGAGAUUCUGGUGAAUCUGCGAAUUCUGCUGUAUAUCUC [C12G U43C C44G] | 0.16
16 | UAACAGGGGGCGACAGCAGAAGCGUUCACGUCGCAGCCCCUGUCAGAUUCGGGCGUAUCUGCGAAUUCUGCUAUAUAUCUC [C12G U51G U54C A56U G73A] | 0.24
17 | UAACAGGGGGCUGCAGCUGAAGCGUUCACGUCGCAGCCCCUGUCAGAUUCUGGUGAAUCUGCGAAUUCUGCUGUAUAUCUC [C12U A13G A18U] | 0.27

Row | Variant | self-cleavage
18 | UAACAGGGGGCUGCAGCAGAUGCGUACACGUCGCAGCCCCUGUCGAAUUCUGGUGAAUCUGCGAAUUCUGCUGUAUGUCUC [C12U A13G A21U U26A A45G G46A A77G] | 0.05
19 | UAACAGGGGGCUGCAGCAGAAGCGCUCACGUCGCAGCCCCUGUCAGAUUCUGGUGAAUCUGCGAAUUCUGCCGUAUACCUC [C12U A13G U25C U72C U78C] | 0.39
20 | UAACAGGGGGCUGCAGCAGAAGCGUUCACGUCGCAGCCCCUGUCAGAUCCUGGUGAAUCUGCGAAUACUGCUGUAUAUCGC [C12U A13G U49C U67A U80G] | 0.07
21 | UAACAGGGGGCUGCAGCAGAAGCGUUCACGUCGCAGCCCCUGUCAGAUUCUGGUGAAUCUGCGAACUCUGCCGUAUAUCUC [C12U A13G U66C U72C] | 0.18
22 | UAACAGGGGGCUGCAGCAGAAGCGUUCACGUCGCAGCCCCUGUCAGAUUCUGGUGAAUCUGCGAAUUCUGCUGUAUAUCCC [C12U A13G U80C] | 0.55
23 | UAACAGGGGGCUUCAGCAGAGGCGUUCGCGUCGCAGCCCCUGUCAGAUUCUGGUGUGUCUGCGAAUCCUGCUGUAUAUCUC [C12U A13U A21G A28G A56U A57G U67C] | 0.35
24 | UAACAGGGGGCUUAAGGAGAAGCGUUCACGUCGCAGCCCCUGCCAGAUUCUGGUGAAUCUGCGAAUCCUGCUGUAUAUCUC [C12U A13U C14A C17G U43C U67C] | 0.08
25 | UAACAGGGGGCUUCAGCAGAAGCGUUCACGUCGCAGCCCCUGCCAGAACCUGGUGAAUCUGCGUAUCCUGCUGUAUAUCUC [C12U A13U U43C U48A U49C A64U U67C] | 0.04
26 | UAACAGGGGGCUUCAGCAGAAGCGUUCACGUCGCAGCCCCUGUCAGAUUCUGGUGAACCUGCGAAUUCUGCUGUAUACCUC [C12U A13U U58C U78C] | 0.72
27 | UAACAGGGGGCUACCGCAGAAGCGUUCACGUCGCAGCCCCCGUCAGAUUCUGGUGAAUCUGCGAACUCUGCCGUACAUCUC [C12U A15C U41C U66C U72C U76C] | 0.76
28 | UAACAGGGGGCUACGGCAGAAGCGUUCGCGUCGCAGCCCCUGUCAGAUUCUGGUGAGUCUGCGAAUUCUGCUGAAUAUCUC [C12U A15G A28G A57G U74A] | 0.48
29 | UAACAGGGGGCUACGGCAGAAGCGCCCACGUCGCAGCCCCUGUUAGAUUCUGGUGAAUCUGCGAAUUCUGCUGUAUAUCUC [C12U A15G U25C U26C C44U] | 0.32
30 | UAACAGGGGGCUACGGCAGAAGCGUUCACGUCGCAGCCCCUGCCAGAUUCUGGUGAAUCUGCGAAUACUGCUGUAUAUCUC [C12U A15G U43C U67A] | 0.08
31 | UAACAGGGGGCUACGGCAGAAGCGUUCACGUCGCAGCCCCUGUCAGAUUCUGGUGAAUCUGCGAAUCCUGCUGUAUAUCCC [C12U A15G U67C U80C] | 0.11
32 | UAACAGGGGGCUACUGCAGAAGCGUUCACGUCGCAGCCCCUGUCAGAUUCUGGCGAUUCUGCGAAUUCUGCUGUAUAUCCC [C12U A15U U54C A57U U80C] | 0.79
33 | UAACAGGGGGCUACAGCGGAGGCGUUCACGUCGCAGCCCCUGGCAGAUUCUGGUGAAUCUGCGAAUUCUGCUGUUUAUCUC [C12U A18G A21G U43G A75U] | 0.31
34 | UAACAGGGGGCUACAGCGGAAGCGUUCACGUCGCAGCCCCUGACAGAUUCUGGUGAAUCUGCGAAUACUGCUGUAUAUCUC [C12U A18G U43A U67A] | 0.4
